Where a name gives a salt, the structure may show the parent alone.
Tests used:
P. falciparum 3D7 [1] = assay: Light microscopy of Giemsa-stained parasites after drug treatment at early rings; assay type: cell-based, Plasmodium falciparum; details: for Food vacuole swelling: 916, 024, 025 15 µM, E-64 10 µM
Protocol: As greater than 50% of parasites could not recover from this treatment condition (refer to Figure 4B), the majority of parasites with this appearance were dying or dead. […] (Figure 4D, arrow). […] Collectively, the toxicity profile seen in the above experiments defines the window of parasite death as between 20 and 30 h, consistent with perturbed protein export and erythrocyte remodeling.

P. falciparum 3D7 [2] = assay: Parasite growth assay, dose-response, parasitemia at 72 h by flow cytometry; assay type: cell-based, Plasmodium falciparum; details: for EC50: Plasmodium falciparum, 3D7, 72 h, early rings treated 72 h, flow cytometry, read-out: EC50 parasite viability; for Effect on parasite viability, in words: concentrations up to 20 µM, 72 h
Protocol: Because PEXEL processing in parasites was unaffected by 024 and 025 treatment, even at 50 µM (Figure 3C), we conclude that the analogs impart toxicity at high concentrations independent of PMV.
In the case of dose-response curves, medium was kept for the entire experiment; in the case of curves in Figure 4B,C, medium was replaced with inhibitor-free medium at 48 h postinfection. Parasitaemia was always determined at 72 h by flow cytometry. To knock down PMV, GlcN (Sigma) was added to trophozoites and drug curves initiated by adding compound at subsequent rings (24 h) for 24–72 h.

| SMILES | Food vacuole swelling (P. falciparum 3D7 [1]) | Parasite development after 32 h of treatment (P. falciparum 3D7 [1]; early rings, 15 µM) | EC50 (P. falciparum 3D7 [2]) [µM] | Effect on parasite viability, in words (P. falciparum 3D7 [2]) | Parasite morphology after 16 h of treatment (P. falciparum 3D7 [1]; early rings, 15 µM) |
| --- | --- | --- | --- | --- | --- |
| CC(C)C[C@H](NC(=O)[C@H]1O[C@@H]1C(=O)O)C(=O)NCCCCN=C(N)N [E-64, reference compound] | swollen food vacuoles | – | – | – | – |
| CC(C)C[C@H](NC(=O)[C@@H](NC(=O)[C@H](CCCCN)NS(=O)(=O)Cc1ccccc1)C(C)C)[C@@H](O)CC(=O)NCCc1ccccc1 [compound 024, PhCH2SO2-Lys(NH2)-Val-Sta-NH(CH2)2Ph .TFA] | did not cause swelling | no effect on development | 66 | negligible effect | – |
| CC[C@H](C)[C@H](NC(=O)[C@@H](NC(=O)[C@H](CCCNC(=N)N)NS(=O)(=O)Cc1ccccc1)C(C)C)[C@@H](O)CC(=O)NCCc1ccccc1 [compound 025, PhCH2SO2Arg-Val-AHMHpA-NH(CH2)2Ph . TFA] | did not cause swelling | no effect on development | 30 | negligible effect | – |
| CC(C)C[C@H](NC(=O)[C@@H](NC(=O)[C@H](CCCNC(=N)N)NS(=O)(=O)Cc1ccccc1)C(C)C)[C@@H](O)CC(=O)NCCc1ccccc1 [compound 916, PhCH2SO2-Arg(NH2)-Val-Sta-NH(CH2)2Ph .TFA] | did not cause swelling | blockage in the ring-trophozoite transition | 2.5 to 5 | completely killed parasites | normal ring-stage morphology |

Reference: paper PMC4077696 (PLoS Biology, 2014)
